Measurements reported in the supplement of paper PMC3334620.
The full ranking holds about 33,000 sequences; the median of “E-score (-0.5 to 0.5)” is about -0.043, and the highest 2% start at about 0.37. The list shows a part of the results.

Target: T1, Upc2 (UniProt Q12151)
T1 sequence: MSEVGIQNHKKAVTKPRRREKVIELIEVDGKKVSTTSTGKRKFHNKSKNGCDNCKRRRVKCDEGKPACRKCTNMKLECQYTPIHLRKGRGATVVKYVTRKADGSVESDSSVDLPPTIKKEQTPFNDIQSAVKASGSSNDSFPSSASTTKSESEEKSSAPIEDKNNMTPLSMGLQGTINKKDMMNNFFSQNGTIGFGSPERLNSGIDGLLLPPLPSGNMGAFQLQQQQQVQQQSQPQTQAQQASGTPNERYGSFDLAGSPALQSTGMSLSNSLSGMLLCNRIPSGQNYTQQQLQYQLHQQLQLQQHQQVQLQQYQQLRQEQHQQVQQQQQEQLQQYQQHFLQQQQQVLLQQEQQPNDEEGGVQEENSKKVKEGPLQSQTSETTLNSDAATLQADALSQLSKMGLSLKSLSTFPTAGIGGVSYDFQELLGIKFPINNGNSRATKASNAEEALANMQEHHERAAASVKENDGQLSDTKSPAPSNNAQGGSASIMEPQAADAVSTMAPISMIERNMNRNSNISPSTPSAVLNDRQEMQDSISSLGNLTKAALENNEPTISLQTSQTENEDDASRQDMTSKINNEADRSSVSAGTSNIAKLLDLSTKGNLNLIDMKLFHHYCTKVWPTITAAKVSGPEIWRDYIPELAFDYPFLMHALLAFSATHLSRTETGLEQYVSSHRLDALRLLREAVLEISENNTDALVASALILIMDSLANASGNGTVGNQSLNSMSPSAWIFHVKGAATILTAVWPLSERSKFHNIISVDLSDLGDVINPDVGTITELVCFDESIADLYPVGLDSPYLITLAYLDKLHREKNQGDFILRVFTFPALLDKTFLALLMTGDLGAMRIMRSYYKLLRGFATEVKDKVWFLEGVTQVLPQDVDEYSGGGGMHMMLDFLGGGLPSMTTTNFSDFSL
Experiment: PBM E-score (8-mer binding enrichment) (E-score (-0.5 to 0.5)); higher = stronger / more preferred TF binding; most listed sequences are background and not binding sites
Settings: protein concentration: 200 nM; construct: GST-full length
Method: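 Universal 'all 10-mer' protein binding microarrays (Agilent AMADID 015681) probed with GST-tagged S. cerevisiae TFs (full-length or DBD) made by in vitro transcription/translation (PURExpress), about 100-200 nM. Bound TF was detected with fluorescent anti-GST. Each ungapped 8-mer (which stands for itself and its reverse complement) is scored by the PBM enrichment score (E-score), a modified Wilcoxon-Mann-Whitney statistic from -0.5 to +0.5, computed with the Universal PBM Analysis Suite. Scale: above 0.35 generally sequence-specific binding.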

Row | Sequence | PBM E-score
1 | CCAGTGGA | -0.274
2 | CATCTGCG | -0.0711
3 | TACCTAAA | 0.00388
4 | GGGCGGAC | -0.202
5 | CTGTGCGC | -0.107
6 | GTTGAAAC | 0.0874
7 | TGGCACAA | -0.131
8 | ATAACTGA | 0.0462
9 | CTTCACAC | 0.00226
10 | AGGTTCAA | -0.0255
11 | ATAGTAGG | -0.162
12 | TCGTGGAA | 0.0697
13 | AAGAAGCC | -0.0707
14 | CGAGATTA | 0.133
15 | GAGTAATA | 0.0679
16 | ACATTACT | -0.107
17 | CCATTAAC | 0.0793
18 | AGACTCTC | -0.0264
19 | CCGGTTGC | 0.00729
20 | ACACCGTG | -0.198
21 | AATGGCGA | -0.129
22 | GGTGTGAA | -0.141
23 | CGTTGCAG | 0.0589
24 | ACATTAGA | -0.078
25 | CCTAATAG | -0.215

Row | Sequence | PBM E-score
26 | GTGCTTTA | 0.166
27 | CACACATG | -0.19
28 | GAGAGCGA | 0.209
29 | CCTTTGCC | -0.176
30 | AATTCGTA | 0.433
31 | CCTAGCTC | -0.228
32 | TAATCGAA | 0.226
33 | GGTTTTAA | 0.13
34 | AGACCCTG | -0.259
35 | AACATGCA | 0.0114
36 | CCACTGCA | -0.289
37 | CAAGATGG | -0.299
38 | GGCTTGAA | -0.182
39 | CCAACCCG | 0.0328
40 | TCGATAAA | 0.162
41 | CACTTTGG | -0.0881
42 | CATCTAAG | -0.0826
43 | AGACCTAC | -0.0654
44 | AGGGGTTA | -0.18
45 | GCCTTCAC | -0.164
46 | CAAATTGG | -0.0221
47 | AAATGGGA | -0.253
48 | GCGAAAAA | 0.148
49 | AGACGGCC | -0.222
50 | GATGGCGC | -0.156

Row | Sequence | PBM E-score
51 | CGTGGATC | -0.0373
52 | ATAGGCAT | -0.102
53 | CTGTCAAA | -0.0412
54 | GTCACACA | -0.147
55 | ACTACTAT | 0.068
56 | GCGAGTCC | -0.0536
57 | CTGTCGCC | -0.209
58 | ATCGGGCC | -0.122
59 | GAGCTCTA | -0.155
60 | CGCCTGGA | -0.212
61 | AATCAACA | 0.0242
62 | CTTGAGCC | -0.23
63 | ACGTAAGA | 0.146
64 | TAATTCAA | 0.145
65 | GACTCGAA | -0.194
66 | AGTGGAAA | -0.142
67 | AAGCAGAC | -0.191
68 | CTTCATAC | 0.114
69 | ATCAACAC | -0.0611
70 | ACATCTAG | -0.0171
71 | TCTAGACA | -0.173
72 | CCGTGCGA | 0.131
73 | CTGAAAGA | -0.0424
74 | ACCATGGC | 0.0704
75 | CCATCCCG | -0.133

Row | Sequence | PBM E-score
76 | AAAAGATA | 0.141
77 | CTTATCCA | -0.0711
78 | AACTCCTG | -0.179
79 | TATCTCAA | 0.118
80 | AACCGATA | 0.319
81 | GATTTGCA | -0.0802
82 | GGCAATAC | 0.154
83 | CGAGACCG | 0.153
84 | GCCTTCGA | -0.0568
85 | ACGTGCTC | -0.0592
86 | CAGAAGCA | -0.142
87 | ACGGCTCA | 0.00728
88 | ATACTAAC | 0.0686
89 | ACGTATCG | 0.22
90 | AGCGAGAA | 0.23
91 | TCAACAGA | -0.169
92 | CGCAGTGC | -0.23
93 | CGGAATTC | -0.0069
94 | ACCGTGCC | -0.113
95 | CTTATTAC | 0.0164
96 | CCCGGGCG | -0.123
97 | ACGTACTG | 0.0569
98 | CACGTAGG | -0.165
99 | ACAATTCA | -0.072
100 | TCCTGTAA | 0.003

Row | Sequence | PBM E-score
101 | ATGTATTC | -0.166
102 | ACACCTGC | -0.0696
103 | ACCTACTG | -0.192
104 | CTGCGAGA | -0.0705
105 | GATCACCC | -0.0409
106 | ACTGCTGG | -0.172
107 | CGTGCACC | -0.00289
108 | ACGAGTAA | 0.348
109 | GCTCAGTA | 0.199
110 | ATACAGCG | -0.129
111 | CTTATAAC | 0.179
112 | AAAGTTTG | -0.135
113 | CTACCCAC | -0.137
114 | CTCGGCCA | -0.0714
115 | ATTTATAC | 0.41
116 | AATTGGCC | -0.129
117 | GCCTTCCA | -0.285
118 | TATCATGA | 0.0143
119 | GACCCGAC | -0.0439
120 | ACCTTATA | 0.0597
121 | CCAAACGG | 0.365
122 | ACCTAGAA | -0.242
123 | CGTTACTC | 0.059
124 | CCGGTTAA | 0.0326
125 | CGCAGGTA | 0.145

Row | Sequence | PBM E-score
126 | AGCCGGAC | 0.00819
127 | GGGGAGAA | -0.0119
128 | CGCCCCCC | -0.298
129 | ATTCCCTC | -0.159
130 | AAGCGGGT | 0.0067
131 | CCTTAAGA | -0.0783
132 | GAACAGAA | -0.163
133 | GTAAAGTA | 0.161
134 | CAAGTGTC | -0.212
135 | AACCAGAG | -0.00548
136 | CCAATGTA | -0.086
137 | GCACGACC | -0.2
138 | AGTTGGAT | -0.0828
139 | CGACATAC | 0.244
140 | GCAGGATA | -0.236
141 | AGTTACAC | 0.0388
142 | GACGGCAC | -0.0495
143 | ATATAGAG | -0.282
144 | ACCTCCTA | -0.284
145 | CAGAATCG | 0.195
146 | AACTATAT | 0.0597
147 | AGTAGCTG | -0.217
148 | CGTGCTAG | 0.0592
149 | GAGGCGTA | 0.193
150 | CGTGTCAA | -0.29

Row | Sequence | PBM E-score
151 | CAGTCCCG | -0.0231
152 | GCGATTAA | 0.103
153 | TCAGACCA | -0.131
154 | GAACTAAA | 0.0965
155 | AGCTTGAA | -0.00977
156 | ATCATCTG | -0.129
157 | AAGATTTC | -0.00074
158 | ACCATTTG | -0.00656
159 | CCTTTCAG | -0.0663
160 | GGAGCGCA | -0.173
161 | CAAGTTAC | 0.0669
162 | CCTTATGA | -0.0741
163 | CGAGGAAG | 0.107
164 | AGTGCGTA | 0.242
165 | GAAGGATC | -0.0638
166 | ACCACGTA | 0.198
167 | CGTGAGCA | -0.033
168 | CAATACCG | -0.0438
169 | ACTTCTCA | -0.0354
170 | GACAGTGC | 0.038
171 | CGCTTCCA | -0.0947
172 | GTTTGGAA | 0.238
